Data taken from the supplement of paper PMC10369915.
The list shows a part of the results. Cut-off read from the data, not from the text of the source: active = 3.2 or more and inactive = the rest. Only a few entries rise above the background.

What was measured:
Test in all cases: enrichment score (SH2-bound / input frequency) (ratio); bacterial display of known human phosphotyrosine sites (pTyr-Var adds point mutants) read by sequencing; higher = stronger binding; tyrosines were phosphorylated by kinases first
Details in all cases: peptide library: Human pTyr
SHP2 C-SH2 domain E139D = target: SHP2 C-SH2 domain E139D
[1] = target: SHP2 C-SH2 domain wild-type
SHP2 N-SH2 domain L43F = target: SHP2 N-SH2 domain L43F
SHP2 N-SH2 domain T42A = target: SHP2 N-SH2 domain T42A
SHP2 N-SH2 domain T52S = target: SHP2 N-SH2 domain T52S
[2] = target: SHP2 N-SH2 domain wild-type
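Note: displayed peptides selected on beads carrying the immobilized SH2 domain, with library peptides lacking any tyrosine serving as negative controls.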

Row | Binder | enrichment score (SHP2 C-SH2 domain E139D) | enrichment score [1] | enrichment score (SHP2 N-SH2 domain L43F) | enrichment score (SHP2 N-SH2 domain T42A) | enrichment score (SHP2 N-SH2 domain T52S) | enrichment score [2]
1 | GVKKPHRYRPGTVAL [H31_HUMAN_42] | inactive: 2.01 | inactive: 2.15 | inactive: 1.94 | inactive: 2.06 | inactive: 2.28 | inactive: 2.65
2 | IRSEENIYTIEENVY [HAVR2_HUMAN_265] | inactive: 1.18 | inactive: 1.35 | inactive: 1.24 | inactive: 1.09 | inactive: 1.12 | inactive: 1.36
3 | KRKQFQLYEEPDTKL [AKAP8_HUMAN_311] | inactive: 0.737 | inactive: 0.834 | inactive: 0.727 | inactive: 0.936 | inactive: 0.732 | inactive: 0.681
4 | IDDNEAAYLKAIIFF [HNF4A_HUMAN_288_YA] | inactive: 2.06 | inactive: 1.94 | inactive: 1.91 | inactive: 1.67 | inactive: 2.06 | inactive: 2.08
5 | EECDQNWYKAELNGK [GRB2_HUMAN_37] | inactive: 1 | inactive: 0.881 | inactive: 1.1 | inactive: 0.888 | inactive: 1.01 | inactive: 1.08
6 | ASPHCPVYVPDPTST [HCK_HUMAN_51] | inactive: 1.19 | inactive: 0.901 | inactive: 0.918 | inactive: 0.987 | inactive: 0.979 | inactive: 1.21
7 | MPPATVVYFPVRGRC [GSTP1_HUMAN_8_YA] | inactive: 0.644 | inactive: 1.14 | inactive: 0.457 | inactive: 0.423 | inactive: 0.354 | inactive: 0.652
8 | VVKDPSIYDTLESVR [GRASP_HUMAN_237] | inactive: 0.875 | inactive: 0.697 | inactive: 0.715 | inactive: 0.615 | inactive: 0.706 | inactive: 0.828
9 | CLRMGNLYDIDEDQM [GRIN2A_HUMAN_1246] | inactive: 1.5 | inactive: 1.37 | inactive: 1.45 | inactive: 1.4 | inactive: 1.54 | inactive: 1.6
10 | EILNSLKYVRPGGGF [GPX1_HUMAN_98] | inactive: 0.617 | inactive: 0.538 | inactive: 0.574 | inactive: 0.577 | inactive: 0.596 | inactive: 0.572
11 | ISTRRSSYEDSSLPS [HNF4A_HUMAN_144] | inactive: 1 | inactive: 1.11 | inactive: 1.11 | inactive: 1.11 | inactive: 0.757 | inactive: 1.24
12 | NNDQYKLYSKHFTLK [GRIN2A_HUMAN_1187] | inactive: 0.995 | inactive: 0.955 | inactive: 1.1 | inactive: 0.755 | inactive: 1.06 | inactive: 1.32
13 | SDKGNLMYSDNRSFQ [GRIN2A_HUMAN_943] | inactive: 0.799 | inactive: 0.747 | inactive: 0.8 | inactive: 0.657 | inactive: 0.813 | inactive: 0.719
14 | AQEDGKVYINMPGRG [HCST_HUMAN_86] | inactive: 0.781 | inactive: 0.704 | inactive: 0.553 | inactive: 0.572 | inactive: 0.538 | inactive: 0.587
15 | IGAGKGKYYAVNFPM [HDAC2_HUMAN_222] | inactive: 2.18 | inactive: 2.58 | inactive: 2.34 | inactive: 2.56 | inactive: 2.93 | inactive: 2.68
16 | IGAGKGKYAAVNFPM [HDAC2_HUMAN_222_YA] | inactive: 2.37 | inactive: 3.11 | inactive: 2.5 | inactive: 2.33 | inactive: 2.53 | inactive: 2.8
17 | NFSVDKLYDLLFTNS [GRM1B_HUMAN_389] | inactive: 1.76 | inactive: 1.85 | inactive: 1.64 | inactive: 1.68 | inactive: 2.06 | inactive: 1.99
18 | SVTTGATYSAGPASW [AKAP8_HUMAN_51_YA] | inactive: 0.63 | inactive: 0.613 | inactive: 0.527 | inactive: 0.559 | inactive: 0.557 | inactive: 0.561

Row | Binder | enrichment score (SHP2 C-SH2 domain E139D) | enrichment score [1] | enrichment score (SHP2 N-SH2 domain L43F) | enrichment score (SHP2 N-SH2 domain T42A) | enrichment score (SHP2 N-SH2 domain T52S) | enrichment score [2]
19 | SKTVCSTYLQSRAAR [HIPK3_HUMAN_359_YA] | inactive: 1.14 | inactive: 1.06 | inactive: 1.41 | inactive: 1.32 | inactive: 1.22 | inactive: 1.14
20 | TVEFLQEYIVNRNKK [AKAP8_HUMAN_436] | inactive: 1.19 | inactive: 0.707 | inactive: 1.07 | inactive: 0.785 | inactive: 0.895 | inactive: 1.2
21 | IDPELARYLNRNYWE [HGS_HUMAN_329] | inactive: 0.67 | inactive: 0.678 | inactive: 0.703 | inactive: 0.786 | inactive: 0.792 | inactive: 0.897
22 | GLSNNDQYKLYSKHF [GRIN2A_HUMAN_1184] | inactive: 0.782 | inactive: 0.738 | inactive: 0.774 | inactive: 0.699 | inactive: 0.798 | inactive: 1.41
23 | EASRLAHYNKRSTIT [H2B1B_HUMAN_84] | inactive: 0.793 | inactive: 0.707 | inactive: 0.636 | inactive: 0.653 | inactive: 1.3 | inactive: 1.03
24 | SKAVCSTYLQSRYYR [HIPK2_HUMAN_361] | inactive: 0.898 | inactive: 0.774 | inactive: 0.787 | inactive: 0.831 | inactive: 1.06 | inactive: 1.12
25 | VGAHAGEYGAEALER [HBA_HUMAN_25] | inactive: 0.652 | inactive: 0.523 | inactive: 0.557 | inactive: 0.629 | inactive: 0.515 | inactive: 0.599
26 | SSNFDSIYICPSTFA [HDAC6_HUMAN_570] | inactive: 1.54 | inactive: 1.34 | inactive: 1.32 | inactive: 1.33 | inactive: 1.55 | inactive: 1.72
27 | NGSFGGQYSECRDPA [AKAP8_HUMAN_170] | inactive: 0.789 | inactive: 0.988 | inactive: 0.9 | inactive: 0.848 | inactive: 0.774 | inactive: 0.963
28 | TARKFLAYEMGAKSR [GPDM_HUMAN_601_YA] | inactive: 1.53 | inactive: 1.17 | inactive: 1.11 | inactive: 1.4 | inactive: 1.2 | inactive: 1.52
29 | YAGGRGSYGDLGGPI [HNRPK_HUMAN_380] | inactive: 0.55 | inactive: 0.524 | inactive: 0.63 | inactive: 0.626 | inactive: 0.812 | inactive: 0.512
30 | FPLFTAVYQICAESR [GPD1L_HUMAN_328_YA] | inactive: 2.04 | inactive: 1.97 | inactive: 2.02 | inactive: 1.85 | inactive: 1.96 | inactive: 2.13
31 | SEDEEDDYQQKRKGV [HAP28_HUMAN_70] | inactive: 1.27 | inactive: 1.06 | inactive: 0.97 | inactive: 0.978 | inactive: 0.888 | inactive: 1.06
32 | VRVCEPCYEQLNRKA [HGS_HUMAN_216] | inactive: 0.993 | inactive: 0.713 | inactive: 0.786 | inactive: 0.69 | inactive: 0.894 | inactive: 0.793
33 | TLRAEDMYSAQSHQA [GPC5C_HUMAN_414] | inactive: 0.589 | inactive: 0.547 | inactive: 0.609 | inactive: 0.757 | inactive: 0.587 | inactive: 0.64
34 | GGGGMPPYTVVAFPV [GSTP1_HUMAN_4_YA] | inactive: 1.49 | active: 4.45 | active: 7.4 | active: 13.8 | active: 4.89 | inactive: 1.01
35 | GYGGYDDYGGYNDGY [HNRH2_HUMAN_246] | inactive: 0.557 | inactive: 0.483 | inactive: 0.542 | inactive: 0.522 | inactive: 0.481 | inactive: 0.483
36 | SKTVCSTYLQSRYYR [HIPK3_HUMAN_359] | inactive: 1.37 | inactive: 1.32 | inactive: 1.36 | inactive: 1.43 | inactive: 1.48 | inactive: 1.4
